Measured values taken from the supplement of paper PMC4604168 (melanoma cell lines).
The list shows a part of the results. Single values are uncertain, as repeats are few or missing.

system: A101D; test: cell count relative to DMSO control; melanoma cells; higher = more viable cells; conditions: library dose: standard library concentration; 72 h
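Also: cells treated in 1,536-well plates, then fixed and DAPI-stained, with nuclei counted from automated high-throughput microscope images.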

How did the cell count turn out when `C[C@]12O[C@H](C[C@]1(O)CO)n1c3ccccc3c3c4c(c5c6ccccc6n2c5c31)CNC4=O` [Lestaurtinib] + O=C(O)c1ccc(-c2c[nH]c3ncc(-c4ccccc4)cc23)cc1C1CCCC1 [GSK650394] (first compound 0.02 µM, partner dose 0.8 µM) was run?
The cell count was 56.5%.

Which cell count does the source give for `Cn1cc(C2=C(c3cn(C4CCN(Cc5ccccn5)CC4)c4ccccc34)C(=O)NC2=O)c2ccccc21` [Enzastaurin] + CN(NC(=O)CC(=O)NN(C)C(=S)c1ccccc1)C(=S)c1ccccc1 [STA4783] (first compound 4 µM, partner dose 0.03 µM) here?
The cell count was 78.4%.

`Cn1cc(C2=C(c3cn(C4CCN(Cc5ccccn5)CC4)c4ccccc34)C(=O)NC2=O)c2ccccc21` [Enzastaurin] + Clc1ccc(Nc2nnc(Cc3ccncc3)c3ccccc23)cc1 [vatalanib] (first compound 4 µM, partner dose 10 µM) was tested. Which cell count did it give?
Its cell count is 44.9%.

Which cell count does the source give for `Cn1cc(C2=C(c3cn(C4CCN(Cc5ccccn5)CC4)c4ccccc34)C(=O)NC2=O)c2ccccc21` [Enzastaurin] + CCCCCCCCc1ccc(CCC(N)(CO)CO)cc1 [fingolimod] (first compound 4 µM, partner dose 10 µM) here?
The cell count was 9.2%.

For `N.N.[Cl][Pt][Cl]` [cisplatin] + O=C(O)c1ccc(-c2c[nH]c3ncc(-c4ccccc4)cc23)cc1C1CCCC1 [GSK650394] (first compound 8 µM, partner dose 0.8 µM), which cell count is on record?
The cell count was 75%.

With `Cn1cc(C2=C(c3cn(C4CCN(Cc5ccccn5)CC4)c4ccccc34)C(=O)NC2=O)c2ccccc21` [Enzastaurin] + O=C(CCCCCCC(=O)Nc1ccccc1)NO [vorinostat] (first compound 4 µM, partner dose 0.4 µM) as the molecule, how does the cell count read?
Its cell count is 83.2%.
